This is a noisy data set.
Test: amyloid nucleation score relative to library mode (yeast Sup35 reporter selection) (log enrichment difference); higher = more amyloid nucleation; sequences are the first 22 residues of the Bri2 peptide extended by up to 12 random residues
Details: random library (experiment): 1;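 active = nucleation score significantly above 0 at FDR 0.05; inactive = not significantly above 0 or absent from output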
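Also: [psi-pin-] Saccharomyces cerevisiae expressing SupN fusions, induced by 100 µM Cu2SO4, selected 7 d at 30 °C without adenine and uracil, scored by deep sequencing of output versus input.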

Sequence	amyloid nucleation score
EASNCFAIRHFENKFAVETLICTTS	1.37
EASNCFAIRHFENKFAVETLICESGTHGGVCMML	inactive
EASNCFAIRHFENKFAVETLICKSPMNCGVACQA	inactive
EASNCFAIRHFENKFAVETLICIVQRVKWQCMVQ	inactive
EASNCFAIRHFENKFAVETLICRKRVPRTLAGLV	-0.129
EASNCFAIRHFENKFAVETLICWTGRYESKWFTR	3.76
EASNCFAIRHFENKFAVETLICEPSRIGRLFGEG	inactive
EASNCFAIRHFENKFAVETLICPSLLVVNAFVSA	5.76
EASNCFAIRHFENKFAVETLICECYVWDSVRQYT	inactive
EASNCFAIRHFENKFAVETLICLPVGRVPPKPLR	3.27
EASNCFAIRHFENKFAVETLICIVWVFVSKSEMM	inactive
EASNCFAIRHFENKFAVETLICVAQLKEAWSHKH	2.99
EASNCFAIRHFENKFAVETLICNVASEEGPNHCI	0.573
EASNCFAIRHFENKFAVETLICRAPQRPSDWKLL	inactive
EASNCFAIRHFENKFAVETLICRMCMWSRDLM	0.565
EASNCFAIRHFENKFAVETLICRPFWECNCSYGR	7.4
EASNCFAIRHFENKFAVETLICALYEAQWEARRF	1.97
EASNCFAIRHFENKFAVETLICLCHRGDSVLMRY	inactive

Sequence	amyloid nucleation score
EASNCFAIRHFENKFAVETLICTSARWRVSWLWK	inactive
EASNCFAIRHFENKFAVETLICATMWNPVMETSR	inactive
EASNCFAIRHFENKFAVETLICRKSRRCRVCVAE	inactive
EASNCFAIRHFENKFAVETLICVQRPSQTRSLFT	1.23
EASNCFAIRHFENKFAVETLICVVYDFVRDRFGE	3.92
EASNCFAIRHFENKFAVETLICVRTGMWGSGLLR	inactive
EASNCFAIRHFENKFAVETLICVRLHPYTVVIDI	inactive
EASNCFAIRHFENKFAVETLICAGGGRYHVRMPF	inactive
EASNCFAIRHFENKFAVETLICMGMYGLSSYGGC	inactive
EASNCFAIRHFENKFAVETLICVESMGSYVGDMA	2.25
EASNCFAIRHFENKFAVETLICRQTTYTVVVRL	inactive
EASNCFAIRHFENKFAVETLICNVTCCVTSICWL	6.97
EASNCFAIRHFENKFAVETLICVGVTRIKLRGNG	inactive
EASNCFAIRHFENKFAVETLICFRSRM	inactive
EASNCFAIRHFENKFAVETLICEGEWTFWVWCLC	inactive
EASNCFAIRHFENKFAVETLICIRL	-0.0194
EASNCFAIRHFENKFAVETLICLIGVSYRTWSSE	6.28
EASNCFAIRHFENKFAVETLICRASLTKVFAKWC	inactive

Same assay, conditions: random library (experiment): 2

Sequence	amyloid nucleation score
EASNCFAIRHFENKFAVETLICYYEDEISQELM	inactive
EASNCFAIRHFENKFAVETLICCDLSFYIGQVIQ	8.19
EASNCFAIRHFENKFAVETLICAYRGIYHFYSRR	inactive
EASNCFAIRHFENKFAVETLICLDVMSKWTRYER	inactive
EASNCFAIRHFENKFAVETLICDLFLKL	inactive
EASNCFAIRHFENKFAVETLICMEERARPREDEL	inactive
EASNCFAIRHFENKFAVETLICPCIAPRHICGVG	inactive
EASNCFAIRHFENKFAVETLICFFNFYFLYRWAD	-0.122
EASNCFAIRHFENKFAVETLICLFRT	inactive
EASNCFAIRHFENKFAVETLICKGITGDGSRLCG	inactive
EASNCFAIRHFENKFAVETLICLAKMFVSRLGVN	inactive
EASNCFAIRHFENKFAVETLICCALLCYV	6.57
EASNCFAIRHFENKFAVETLICYDNFIR	0.416
EASNCFAIRHFENKFAVETLICFWFVFN	1.95
EASNCFAIRHFENKFAVETLICCSMYLIWMSQGS	6.06
EASNCFAIRHFENKFAVETLICLNLVNCCYLKYQ	inactive
EASNCFAIRHFENKFAVETLICAETSIFNEDVGK	inactive
EASNCFAIRHFENKFAVETLICPRKGYLLNTKVF	inactive
EASNCFAIRHFENKFAVETLICAFDDHSTSFV	inactive
EASNCFAIRHFENKFAVETLICMSRQCGFLVMGM	inactive
EASNCFAIRHFENKFAVETLICICCWLVFVISNT	inactive
EASNCFAIRHFENKFAVETLICHDSNGNNRFLAY	inactive
EASNCFAIRHFENKFAVETLICCIHTSYRGKIWS	3.44
EASNCFAIRHFENKFAVETLICKVPNSRCRVLVK	inactive
EASNCFAIRHFENKFAVETLICPIHVVRSYISVP	-0.358
EASNCFAIRHFENKFAVETLICVSRMSHSFIVLD	inactive
EASNCFAIRHFENKFAVETLICKFGFFCSQVPYF	1.43
EASNCFAIRHFENKFAVETLICLVNSCHRKMGVI	inactive

Same assay, conditions: random library (experiment): 3

Sequence	amyloid nucleation score
EASNCFAIRHFENKFAVETLICMRSGELRSGVVT	0.758
EASNCFAIRHFENKFAVETLICPSVVAWLTSSCR	inactive
EASNCFAIRHFENKFAVETLICGRWQTFGERNPA	inactive
EASNCFAIRHFENKFAVETLICGLRQGCRMGNGW	inactive
EASNCFAIRHFENKFAVETLICFNAYVVIVYEFM	inactive
EASNCFAIRHFENKFAVETLICPLMSCYKRACDT	inactive
EASNCFAIRHFENKFAVETLICEQKVG	inactive
EASNCFAIRHFENKFAVETLICQRVVINDLVTSG	inactive
EASNCFAIRHFENKFAVETLICHPPDRFIEWFCS	2.77
EASNCFAIRHFENKFAVETLICLGSFLSELTCPR	3.48
EASNCFAIRHFENKFAVETLICVVTYFWQLGVKP	inactive
EASNCFAIRHFENKFAVETLICRFNHKSNFTCGL	3.33
EASNCFAIRHFENKFAVETLICILVTVMFFNRFS	inactive
EASNCFAIRHFENKFAVETLICGKGTTLHVRNLK	-0.402
EASNCFAIRHFENKFAVETLICDTVGALAVLREA	inactive
EASNCFAIRHFENKFAVETLICCWMM	8.5
EASNCFAIRHFENKFAVETLICRLDTWLIMGSAH	inactive
EASNCFAIRHFENKFAVETLICPMLCKNSRILLM	inactive
EASNCFAIRHFENKFAVETLICYWIWYNQVSLRV	inactive
EASNCFAIRHFENKFAVETLICRCHGYEGFLASR	3.19
EASNCFAIRHFENKFAVETLICCGPCVVIVIAPP	inactive

— the supplement of paper PMC12067230
